The record followed here is paper PMC12136788.

Some of the results follow.

Sequences and labels used below:
B1: 44566837_44567071_572_CDS_ENSMUSG00000032096_ENSMUST00000034607|mouse|control|control (ssRNA)
RNA: GGGAGUUCUACAGUCCGACGAUCACGUUCUUGAGUCUCUCUGACUGCUCGGAAUACUUUCUCCUCGUGAGAGUCCAUUUCUGUAAAGGUUCUGAUCUGUGCCAGGUUAACAUUCUCCCGGUAUCCCAGGGCAACAAUUUCAUCCAACAGAGGAUUGAGCAUCA
B2: 100944326_100944446_200_CDS_ENSMUSG00000001755_ENSMUST00000001806|mouse|control|control (ssRNA)
RNA: GGGAGUUCUACAGUCCGACGAUCCAGGUGCACAUAGAGGGUGUGAUUCACCAGGCGGGACGCCGAGGUCAGGAUGGGAGGCAGGCGUGCGGCCAGGGUGGCCAGCGGCGUUGUCAGCACCAGGAGGCCUGAGCGGAACACGGCCAACAGAGGAUUGAGCAUCA
B3: chr7:151048522:151048523:+_ENSG00000013374_ENST00000566856|hu_mus|hu_hu_hu_mus_True|78_78 (ssRNA)
RNA: GGGAGUUCUACAGUCCGACGAUCCUGUUUCUUAUUUAUUACGAUCUUGAUGUAAUUUUCUUGAAGUCCGAAAGUUUCAGCUAUUUGACACCUCAGGUCUCUACCAGUGACAUGCAAGCGGGUCUCCAACAAGCUUUUCUUAUCCAACAGAGGAUUGAGCAUCA
B4: chr14:89338683:89338684:+_ENSG00000165533_ENST00000346301|hu_hu|hu_hu_hu_mus_False|58_58 (ssRNA)
RNA: GGGAGUUCUACAGUCCGACGAUCGUGGUUGUUGUGGACCAGGGCCAGCCUGAAGCAUUGGUGGGCCAAGUUUGUAUCUCCUAUUCCCACAGCUAUGUGCCCCAGGUUGUACCAGACAUCAGCUGCCUCUUCUUCAUUUUCAGCCAACAGAGGAUUGAGCAUCA
B5: chr4:106720802:106720803:+_ENSMUSG00000061887_ENSMUST00000030367|mus_hu|FALSE|FALSE (ssRNA)
RNA: GGGAGUUCUACAGUCCGACGAUCGUUUUGUCCUUCUUGUUUUAUGGAAUAAAAAGUUUGGCCUUUUUAUUGCAUGAAACUAAAAUUGGGAAAGGUAGGGGGCGUGGAUGGGGUGGGAGGGGGUUGAGGGGAGCAGGGAGAUGCCAACAGAGGAUUGAGCAUCA
B6: chr5:108714581:108714582:-_ENSG00000198961_ENST00000361557|hu_mus|FALSE|FALSE (ssRNA)
RNA: GGGAGUUCUACAGUCCGACGAUCUGACAGGUCAGCGUAGAUCUCUGCCUCUCCAUUUUCCAGCUCAAAGACUGCACGGCCUAACCCCUUCUGAUGUCUACCACCUUCCACAGCUUCAGCGCCAAGUUGAAGAGAGCCAUUCUCCAACAGAGGAUUGAGCAUCA
B7: chr7:75932113:75932114:+_ENSG00000106211_ENST00000248553|hu_hu|hu_hu_hu_mus_False|1_58 (ssRNA)
RNA: GGGAGUUCUACAGUCCGACGAUCCUGCGACCACUCAUCGGGCAACCGGGGCACCCCGAAAGCUUGAUCGAAGAGGCGGCUAUGCGGAGGGUACCAGUCCCGGAAUGGUUCCCAGCUCGGGCUCCGCAGCAGCGAGAGGACGCGCAACAGAGGAUUGAGCAUCA
B8: chr3:87342203:87342204:+_ENSMUSG00000003382_ENSMUST00000170036|mus_mus|FALSE|FALSE (ssRNA)
RNA: GGGAGUUCUACAGUCCGACGAUCCCGAGUGCCAUCCCUUGCCUCAGCAGAUAGGAAACCAUUUCUUCUUGCUGCUCUGAGCUACUAGAGCACACACGUGCACAGAGGCCGUUGGCUGGUGCCGCUUUCUCUCUACCCUAGUGCCAACAGAGGAUUGAGCAUCA
B9: chr13:30959905:30959906:-_ENSMUSG00000021357_ENSMUST00000021785|mus_mus|motif|central (ssRNA)
RNA: GGGAGUUCUACAGUCCGACGAUCAUGGAUGCUUCCAAACAAAUCAGGAGAAGAAACAUCAACAGAAAGAUGAGUAGUAUCGGUGUCUGCAUCAGGCUUGGUGCUCAGUUGUUCCAGGCAGUAUAUAAAAACCUGCAUGAUAUUCAACAGAGGAUUGAGCAUCA
B10: 156046937_156047057_930_CDS_ENSG00000254726_ENST00000532414|human|control|control (ssRNA)
RNA: GGGAGUUCUACAGUCCGACGAUCGGGCUUGCAGCCGGGCUGGUGCACCCGCCAGGCGUCGGAGUAGCGGCUAUCGAUUGCUGCGUCGGGGCUCCCCGCCAGGAAGUCGUUUUCAUUGUUGUACUCGAGGAUCUUGCCAGUGCGCAACAGAGGAUUGAGCAUCA
B11: chr7:135612270:135612271:-_ENSG00000105887_ENST00000393085|hu_mus|hu_hu_hu_mus_False|38_38 (ssRNA)
RNA: GGGAGUUCUACAGUCCGACGAUCGUUUUUUUCUGAGAUGUUAAAUAGUACUUCAGUGGAAAACAAAACUUAACCUUUUAUUAAUGCGUGUUGUACCAGAAAGCAAAAUUUUAGCUUCAUUUAUUCAAAAAUAUUAACAUUAAGCAACAGAGGAUUGAGCAUCA
B12: chr10:62544473:62544474:+_ENSG00000170312_ENST00000395284|hu_mus|FALSE|FALSE (ssRNA)
RNA: GGGAGUUCUACAGUCCGACGAUCAGUGACUCUGUGUCUACCCUUAUACACCACACCGUAAGUACCUUCUCCAAUUUUCUCUAUUUUGAUAUAGUCUUCCAUAGUUACUCAACAGGUUACGACGGACCCUCUCGUGAGCUGUUCCAACAGAGGAUUGAGCAUCA
B13: chr3:179287964:179287965:+_ENSG00000136518_ENST00000429709|hu_hu|hu_hu_hu_mus_True|1_28 (ssRNA)
RNA: GGGAGUUCUACAGUCCGACGAUCCUUGAGUGGUGAGAUGGCCUCCAUGUUCUCCCUGGGCACGCGGAGGGCAUUGGUGUCUAUGUAGUAGGUGGGCCCGCCCUGCUUGCCUUUAUCACCAUCAAUCUCCAUCAUUGUGCUUCCCAACAGAGGAUUGAGCAUCA
B14: chr2:9728443:9728444:-_ENSG00000134308_ENST00000238081|hu_mus|FALSE|FALSE (ssRNA)
RNA: GGGAGUUCUACAGUCCGACGAUCCUGCAUCUCCUUCUUGCUUAUAUCAAACGCCUCUUGGUAGGCUCCUUGGGAAUUUUCUAUUGUUUGUUUUCGAUCAUCGCCACAAGCUACUUCAGCAAGAUACCGGAAAUAAUCUCCCUUCAACAGAGGAUUGAGCAUCA
B15: chr4:43572504:43572505:-_ENSMUSG00000028465_ENSMUST00000123985|mus_mus|FALSE|FALSE (ssRNA)
RNA: GGGAGUUCUACAGUCCGACGAUCUCUCUCCAUUAGGUCAGUCGAAGAUGAGUCAAAGGUAUCGUCCCAGGCACAGAGAAUAGCACUAGCAAAGGUUGAGAGGCAGGAGAUCUCGGAGGAAUGCCCAGGAAAGUGAGGAGGCAACAACAGAGGAUUGAGCAUCA
B16: chr16:94690093:94690094:+_ENSMUSG00000040785_ENSMUST00000117648|mus_hu|mus_mus_mus_hu_True|68_68 (ssRNA)
RNA: GGGAGUUCUACAGUCCGACGAUCGGGCUGGGAUGACGGACACACAGCCUCGAUUCCAGGGGGAAAAAAAAAUAGCCGAUACUAAUUAAAAAGUGUUAAUGAUUUUUGAAAAUCAGAUUACAUCUAUAAAAGAUGAAAAGCAAACAACAGAGGAUUGAGCAUCA
B17: 36956110_36956230_3162_CDS_ENSMUSG00000029190_ENSMUST00000132383|mouse|control|control (ssRNA)
RNA: GGGAGUUCUACAGUCCGACGAUCAUCCAGUGAUGUCUGAGCACUCUUCUCCAUUCCAGAUUUUUUUAACCUGGGCAGGAACUUCCCAGACUCAAGCUCUAACUUUCCAUAGUAGUGACCUUCUUUCUCUGCAUCUUCCUCUAACAACAGAGGAUUGAGCAUCA
B18: chr13:90244479:90244480:+_ENSMUSG00000012422_ENSMUST00000161568|mus_mus|FALSE|FALSE (ssRNA)
RNA: GGGAGUUCUACAGUCCGACGAUCUCUGGUUAGCAAUCCAAAGGGUUUAAAUAUGAAUGCAAUCCAUAAGAACAGUAACAACAACAAAAAUAGAACAAGUUUUUUUCUCAAUAAAAAUAGGCCAGUCGCUAGAAGGUACCAUUCCAACAGAGGAUUGAGCAUCA
B19: chr17:65337135:65337136:-_ENSG00000197170_ENST00000584008|hu_mus|FALSE|FALSE (ssRNA)
RNA: GGGAGUUCUACAGUCCGACGAUCCUGGAAGUUGAUGACUCCAGCCAACCUGUCUACUUUAGCAAAGAUGGUCUUGUUAACGACUAGAUUCGAGAGGAAAGCCUCUGACUCAUCCACAGAGAGAUCCAGAAGUUGUGCCAUCCUCAACAGAGGAUUGAGCAUCA
B20: chr14:21542388:21542389:+_ENSMUSG00000021819_ENSMUST00000022358|mus_mus|FALSE|FALSE (ssRNA)
RNA: GGGAGUUCUACAGUCCGACGAUCGAAGGCGCUGCGAGCGCUGCGGAUUGCAUUCACAAAGUCGUCGUAGUCGGCAGGAGUCAGGUGAAUUAAGCGGUGAUGGAUGUACUGCAUGUAUGCCUGCUGACAGCGCUGCACCAGUUGCAACAGAGGAUUGAGCAUCA
B21: chr22:19452774:19452775:-_ENSG00000070010_ENST00000399523|hu_hu|hu_hu_hu_mus_False|1_28 (ssRNA)
RNA: GGGAGUUCUACAGUCCGACGAUCCUUCUCAUUGUAGUUGAUAGCAAUCACAUCUCCAGUCGUCAGACAGGCGAAGUUUCUCAAUGCAUUUUCUAAUACCGCUUUAGGGUUGGUGAUAUCCAGGAAGUCUGGGCUCUGAGGUUGCAACAGAGGAUUGAGCAUCA
B22: chr12:118471567:118471568:-_ENSG00000176871_ENST00000315436|hu_hu|FALSE|FALSE (ssRNA)
RNA: GGGAGUUCUACAGUCCGACGAUCGCACUUGGCCAACAUCGAAGCAACUCUGACCACAGCAGGAGAGAACUUGAACCAAUGCUACCACUGCAUCAGAAACACAAGGAUAGGUACUAGGCAGAAGCCAUCGUUCCCAGCGGAGGGCAACAGAGGAUUGAGCAUCA

The assay concerns the target T1, UNK ZnF1-3 (human, UniProt Q9C0B0 31-174).
T1 sequence: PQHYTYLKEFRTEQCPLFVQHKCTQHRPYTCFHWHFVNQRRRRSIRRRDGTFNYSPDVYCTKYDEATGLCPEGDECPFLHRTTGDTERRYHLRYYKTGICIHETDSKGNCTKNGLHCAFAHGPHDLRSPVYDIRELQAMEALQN
Put plainly: nsRBNS (natural sequence RNA bind-n-seq); RBNS binding buffer (assumed for nsRBNS): 25 mM Tris pH 7.5, 150 mM KCl, 3 mM MgCl2, 0.01% Triton X-100, 500 ug/ml BSA, 20 U/ml SUPERase-In, 4 C; UNK is unkempt and MSI1 is Musashi-1; names of the RNAs are library labels; protein concentration not given here; high values mean tight binding.
For the molecule B1, the binding signal was 0.654 enrichment R.
Consider B2, for which the binding signal is 2.19 enrichment R.
Take B3: the binding signal worked out at 0.659 enrichment R.
Next, B4: 0.611 enrichment R; B5: 0.945 enrichment R.
In the case of B6, the binding signal amounted to 1.09 enrichment R.
Next, B7: 0.717 enrichment R; B8: 0.889 enrichment R.
The same measure for B9: 1.78 enrichment R; for B10: 1.47 enrichment R.
Turning to B11, the binding signal is 2.24 enrichment R.
The same measure for B12: 0.711 enrichment R; for B13: 0.676 enrichment R.
Next, B14: 0.939 enrichment R; B15: 2.28 enrichment R.
Next, B16: 1.64 enrichment R; B17: 0.531 enrichment R.
Turning to B18, the binding signal turned out to be 1.4 enrichment R.
Next, B19: 0.736 enrichment R.
Next, B20: 1.14 enrichment R.
Next, B21: 0.728 enrichment R; B22: 1.48 enrichment R.
